Values joined by “and” are separate entries in the source; they are usually repeats but may differ in a detail not shown here. Equal values may be shown once. Where a name gives a salt, the structure may show the parent alone. In all, about 5,800 compounds went through this assay and about 620 (11%) showed activity.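 The calls were made as follows: active = score above a cut-off or among the top three wells of a plate; in these data no inactive exceeds 0.85.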 The list shows a part of the results, in another mix than the full data.
System: primary human hepatic stellate cells (donor 1)
Experiment: scaled lipid accumulation score (0 = DMSO-like, 1 = nortriptyline-like); higher = stronger HSC inactivation (lipid re-accumulation), active = hit call of the paper
Conditions: 48 h
[1] = library stock concentration: 80 uM
[2] = library stock concentration: 400 uM
[3] = library stock concentration: 2 mM
[4] = library stock concentration: 10 mM
[5] = library stock concentration: 3.33 mM
[6] = library stock concentration: 1 mM

SMILES: Cc1cn(-c2cc(NC(=O)c3ccc(C)c(Nc4nccc(-c5cccnc5)n4)c3)cc(C(F)(F)F)c2)cn1
- scaled lipid accumulation score [1]: inactive: ≤ -0.009
- scaled lipid accumulation score [2]: inactive: 0.035
- scaled lipid accumulation score [3]: inactive: ≤ -0.009
- scaled lipid accumulation score [4]: inactive: ≤ -0.008

SMILES: Cc1cn(-c2cc(NC(=O)c3ccc(C)c(Nc4nccc(-c5cccnc5)n4)c3)cc(C(F)(F)F)c2)cn1 [Nilotinib (AMN107, Tasigna) (0.4 mM)]
- scaled lipid accumulation score [2]: inactive: 0.053

SMILES: Cc1cn(-c2cc(NC(=O)c3ccc(C)c(Nc4nccc(-c5cccnc5)n4)c3)cc(C(F)(F)F)c2)cn1 [Nilotinib (AMN107, Tasigna) (10 mM)]
- scaled lipid accumulation score [4]: inactive: 0.552

SMILES: Cc1cn(-c2cc(NC(=O)c3ccc(C)c(Nc4nccc(-c5cccnc5)n4)c3)cc(C(F)(F)F)c2)cn1 [Nilotinib (AMN107, Tasigna) (2 mM)]
- scaled lipid accumulation score [3]: inactive: ≤ -0.005

SMILES: Cc1cn(-c2cc(NC(=O)c3ccc(C)c(Nc4nccc(-c5cccnc5)n4)c3)cc(C(F)(F)F)c2)cn1 [Nilotinib (AMN-107)]
- scaled lipid accumulation score [5]: inactive: 0.438
- scaled lipid accumulation score [4]: inactive: 0.668

SMILES: CCCCN(CCCC)CC(O)c1cc(Cl)cc2c1-c1ccc(Cl)cc1/C2=C/c1ccc(Cl)cc1 (stereo unspecified) [Lumefantrine]
- scaled lipid accumulation score [4]: inactive: 0.051

SMILES: O=C(O)c1cc(=O)c2c(Cl)cc(Cl)cc2[nH]1 [5,7-Dichlorokynurenic acid]
- scaled lipid accumulation score [4]: inactive: 0.031 and inactive: 0.027

SMILES: CC(COc1ccccc1Cc1ccccc1)N1CCCCC1.O=P(O)(O)O (stereo unspecified)
- scaled lipid accumulation score [4]: active: 1.02

SMILES: CCCNC(=O)Nc1ccc(Oc2ncnc3cc(OC)c(OC)cc23)cc1Cl
- scaled lipid accumulation score [1]: inactive: ≤ 0
- scaled lipid accumulation score [2]: inactive: ≤ 0
- scaled lipid accumulation score [3]: inactive: ≤ 0
- scaled lipid accumulation score [5]: inactive: ≤ 0
- scaled lipid accumulation score [4]: inactive: ≤ 0 and inactive: 0.284

SMILES: CCCCC[C@H](O)/C=C/[C@H]1CC[C@@H](O)[C@@H]1CCCCCCC(=O)O [11-deoxy Prostaglandin F1.beta.]
- scaled lipid accumulation score [6]: inactive: ≤ 0

SMILES: CN(C)C(=O)C(=O)c1cn(C)c2cc(Cl)c(C(=O)N3CCC(Cc4ccc(F)cc4)CC3)cc12
- scaled lipid accumulation score [4]: inactive: 0.039

SMILES: CN(C)CC/C=C1\c2ccccc2Sc2ccc(Cl)cc21.Cl [Chlorprothixene hydrochloride]
- scaled lipid accumulation score: active: 0.902

SMILES: O=C1C=CC(=O)C2=C1C1c3ccccc3C2c2ccccc21
- scaled lipid accumulation score [4]: active: 0.953

SMILES: OCCCNc1cc(-c2ccnc(Nc3cccc(Cl)c3)n2)ccn1
- scaled lipid accumulation score [4]: active: 0.957

SMILES: Nc1c2ccccc2nc2ccccc12 [Aminacrine]
- scaled lipid accumulation score [4]: inactive: 0.499

SMILES: CS(=O)(=O)c1ccc(-n2nc(C(F)(F)F)cc2-c2ccc(F)cc2)cc1
- scaled lipid accumulation score [4]: inactive: ≤ -0.055

SMILES: Cc1ccc(=O)n(-c2ccccc2)c1 [Pirfenidone]
- scaled lipid accumulation score [5]: inactive: ≤ 0
- scaled lipid accumulation score [4]: inactive: ≤ 0 and inactive: ≤ -0.055 and inactive: ≤ -0.006

SMILES: OCC(O)CCO/N=C1\C(c2c(O)[nH]c3ccccc23)=Nc2ccccc21 (stereo unspecified) [Indirubin Derivative E804]
- scaled lipid accumulation score [5]: inactive: ≤ 0

SMILES: Cc1cc(CN2CCN(c3c(Br)cnc4nc(-c5ccc(N6CCN(C)CC6)cc5)[nH]c34)CC2)no1
- scaled lipid accumulation score [4]: inactive: 0.471

SMILES: O=C(O)/C=C\C(=O)O.O=C(O)/C=C\C(=O)O.c1cc(CN2CCCCC2)cc(OCCCNc2nc3ccccc3s2)c1 [Zolantidine dimaleate]
- scaled lipid accumulation score [4]: active: 1.5

SMILES: COc1ccc(C2CC(=O)c3c(O)cc(OC4OC(COC5OC(C)C(O)C(O)C5O)C(O)C(O)C4O)cc3O2)cc1OC (stereo unspecified) [Methyl-Hesperidin]
- scaled lipid accumulation score [5]: inactive: ≤ 0
- scaled lipid accumulation score [4]: inactive: ≤ 0

SMILES: Cl/C(=C\n1cncn1)c1ccc(Cl)cc1Cl [Loreclezole hydrochloride]
- scaled lipid accumulation score [4]: inactive: 0.005

SMILES: O=C(Oc1cc(S(=O)(=O)c2ccccc2)ccc1[N+](=O)[O-])c1ccc(Cl)cc1
- scaled lipid accumulation score [5]: inactive: ≤ -0.009
- scaled lipid accumulation score [4]: inactive: ≤ 0

SMILES: CCC(=O)NC1Cc2ccccc2C(c2ccccc2)C1 (stereo unspecified)
- scaled lipid accumulation score [4]: inactive: ≤ -0.006

SMILES: N[C@@H](Cc1cc(I)c(Oc2ccc(O)c(I)c2)c(I)c1)C(=O)O [Liothyronine Sodium]
- scaled lipid accumulation score [5]: inactive: ≤ 0
- scaled lipid accumulation score [4]: inactive: ≤ -0.001

SMILES: N[C@@H](Cc1cc(I)c(Oc2ccc(O)c(I)c2)c(I)c1)C(=O)O [Liothyronine (l- isomer) sodium]
- scaled lipid accumulation score (library stock concentration: 3 mM): inactive: ≤ 0

SMILES: N[C@@H](Cc1cc(I)c(Oc2ccc(O)c(I)c2)c(I)c1)C(=O)O [Liothyronine sodium]
- scaled lipid accumulation score [4]: inactive: 0.105

SMILES: N[C@@H](Cc1cc(I)c(Oc2ccc(O)c(I)c2)c(I)c1)C(=O)O [Liothyronine]
- scaled lipid accumulation score: inactive: ≤ 0
- scaled lipid accumulation score (library stock concentration: 3.1 mM): inactive: ≤ 0

SMILES: N[C@@H](Cc1cc(I)c(Oc2ccc(O)c(I)c2)c(I)c1)C(=O)O
- scaled lipid accumulation score [4]: inactive: 0.052

SMILES: NC[C@@H]1O[C@@H](O[C@H]2[C@H](O)[C@@H](O[C@H]3O[C@H](CO)[C@@H](O)[C@H](N)[C@H]3O)[C@H](N)C[C@@H]2N)[C@@H](O)[C@H](O)[C@H]1O [Kanamycin A sulfate]
- scaled lipid accumulation score: inactive: ≤ 0

SMILES: NC[C@@H]1O[C@@H](O[C@H]2[C@H](O)[C@@H](O[C@H]3O[C@H](CO)[C@@H](O)[C@H](N)[C@H]3O)[C@H](N)C[C@@H]2N)[C@@H](O)[C@H](O)[C@H]1O [Kanamycin a sulfate]
- scaled lipid accumulation score [4]: inactive: ≤ 0

SMILES: Nc1nc(-c2ccc(Cl)c(Cl)c2)c(-c2ccncc2)s1 [CGH 2466 dihydrochloride]
- scaled lipid accumulation score [4]: inactive: 0.001

SMILES: N[C@@H](CS(=O)O)C(=O)O [L-Cysteinesulfinic Acid]
- scaled lipid accumulation score [4]: inactive: ≤ 0

SMILES: N[C@@H](CS(=O)O)C(=O)O [L-Cysteinesulfinic acid]
- scaled lipid accumulation score [4]: inactive: ≤ 0

SMILES: CCCCCCCCCCCCCCCCCCOCC(O)COP(=O)([O-])OCC[N+](C)(C)C (stereo unspecified)
- scaled lipid accumulation score [6]: inactive: ≤ 0

SMILES: COC(=O)[C@H](NC(=O)c1cc(-c2ccccc2)nc2ccccc12)c1ccccc1
- scaled lipid accumulation score [4]: inactive: 0.074 and inactive: ≤ -0.006

SMILES: N#Cc1cc2nc(O)c(O)nc2cc1[N+](=O)[O-] [CNQX disodium]
- scaled lipid accumulation score [4]: inactive: ≤ -0.07

SMILES: N#Cc1cc2nc(O)c(O)nc2cc1[N+](=O)[O-] [CNQX disodium salt]
- scaled lipid accumulation score [4]: inactive: 0.017

— the supplement of paper PMC9135407
